Assay results taken from paper PMC4336329 (PLoS ONE, 2015).
Out of some 310,000 compounds screened, about 14,000 (4.5%) showed an effect of 50% or more. The effect is printed as a negative number. The list shows a part of the results. Where a SMILES comes first, the peptide text is derived from it. [ ]: non-standard residue; d: D form. The star is where a group is joined. ξ: configuration not given here. Cbz = O=C(OCc1ccccc1)*; ξV = CC(C)C(N)C(=O)O
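Note: peak tail current of the secondary pulse compared with the same well before compound.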

These compounds were tested against human ether-à-go-go-related gene (hERG) potassium channel (human, UniProt Q12809) (assay: primary screen, population patch clamp on CHO cells stably expressing hERG).
Chain of human ether-à-go-go-related gene (hERG) potassium channel (Q12809 whole entry, looked up): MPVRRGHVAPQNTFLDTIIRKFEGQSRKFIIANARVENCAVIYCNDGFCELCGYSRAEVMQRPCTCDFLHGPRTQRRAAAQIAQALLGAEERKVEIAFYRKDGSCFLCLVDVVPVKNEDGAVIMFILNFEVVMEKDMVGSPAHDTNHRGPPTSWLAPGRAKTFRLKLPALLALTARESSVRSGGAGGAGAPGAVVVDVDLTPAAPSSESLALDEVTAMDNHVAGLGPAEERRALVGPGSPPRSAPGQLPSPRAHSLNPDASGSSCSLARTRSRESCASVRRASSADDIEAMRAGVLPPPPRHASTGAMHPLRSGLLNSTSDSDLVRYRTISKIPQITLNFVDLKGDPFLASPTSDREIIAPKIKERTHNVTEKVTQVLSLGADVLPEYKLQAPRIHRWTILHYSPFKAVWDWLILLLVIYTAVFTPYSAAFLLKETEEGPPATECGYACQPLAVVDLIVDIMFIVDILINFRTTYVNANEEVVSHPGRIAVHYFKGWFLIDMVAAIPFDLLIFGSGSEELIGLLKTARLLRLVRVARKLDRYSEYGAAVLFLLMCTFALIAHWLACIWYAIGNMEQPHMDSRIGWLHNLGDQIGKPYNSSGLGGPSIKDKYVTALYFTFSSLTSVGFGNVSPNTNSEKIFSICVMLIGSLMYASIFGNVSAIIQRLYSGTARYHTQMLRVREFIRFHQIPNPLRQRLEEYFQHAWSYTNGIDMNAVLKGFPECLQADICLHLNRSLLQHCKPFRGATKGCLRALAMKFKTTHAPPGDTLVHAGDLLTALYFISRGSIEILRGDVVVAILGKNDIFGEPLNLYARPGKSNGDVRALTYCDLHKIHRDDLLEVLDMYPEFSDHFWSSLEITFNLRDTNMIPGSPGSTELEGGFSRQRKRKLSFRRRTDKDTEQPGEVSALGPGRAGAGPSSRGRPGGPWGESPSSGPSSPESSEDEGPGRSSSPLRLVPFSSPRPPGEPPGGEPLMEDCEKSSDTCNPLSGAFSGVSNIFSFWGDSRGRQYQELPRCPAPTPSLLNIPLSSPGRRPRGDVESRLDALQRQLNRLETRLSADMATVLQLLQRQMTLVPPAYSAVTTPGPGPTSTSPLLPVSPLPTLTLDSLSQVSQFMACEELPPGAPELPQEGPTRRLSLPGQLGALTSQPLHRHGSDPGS
`CCOC(=O)CSC1=C(C#N)C(c2ccc3c(c2)OCO3)CC(=O)N1` (centres unmarked) was tested, and the “hERG current change (%, negative = inhibition) at 10uM” value was 4.44%. `COc1cccc(CSc2nccn2C)c1` was tested, and the “hERG current change (%, negative = inhibition) at 10uM” value was 16.8%. With `NC(=O)c1ccc(NC(=O)COC(=O)c2ccccc2Nc2ccccc2)cc1` the “hERG current change (%, negative = inhibition) at 10uM” value was 3.18%. With `CCCN1Cc2cccc(C(=O)Nc3ccc(C)cc3)c2C1=O` the “hERG current change (%, negative = inhibition) at 10uM” value was 22.6%. With `CN(C)c1ccc(/C=C(\C#N)C(=O)Nc2nc3c(s2)CCN(Cc2ccccc2)C3)cc1` the “hERG current change (%, negative = inhibition) at 10uM” value was 12.1%. In the case of `Cn1c(Cn2c3ccccc3c3ccccc32)n[nH]c1=S`, the “hERG current change (%, negative = inhibition) at 10uM” value was 2.11%. In the case of `NC(=O)c1ccc(-c2nnn(CC(=O)Nc3cccc(S(=O)(=O)N4CCCC4)c3)n2)cc1`, the “hERG current change (%, negative = inhibition) at 10uM” value was 4.54%. With `Cc1cc(C)n(-c2ccc(C(=O)NCCCN3CCOCC3)cc2)n1` the “hERG current change (%, negative = inhibition) at 10uM” value was 19.7%. For `O=C(COC(=O)c1ccccc1O)NCC1COc2ccccc2O1` (centres unmarked), the “hERG current change (%, negative = inhibition) at 10uM” value was 21.3%. In the case of `CCOc1ccc(C(=O)COC(=O)Cc2n[nH]c(=O)c3ccccc23)cc1`, the “hERG current change (%, negative = inhibition) at 10uM” value was -14.4%. For `O=C(NCCN1CCOCC1)c1ccc(Cl)cc1[N+](=O)[O-]`, the “hERG current change (%, negative = inhibition) at 10uM” value was 7.54%. For `Cc1nc(N2CCN(C(=O)COc3ccccc3)CC2)c2c(C)c(C)sc2n1.Cl`, the “hERG current change (%, negative = inhibition) at 10uM” value was -69.3%. With `O=C(CN1C(=O)COc2ccccc21)N1CCCC1` the “hERG current change (%, negative = inhibition) at 10uM” value was 11.4%. With `CC(C)OC(=O)c1c2c(n3ccccc13)C(=O)c1ccccc1C2=O` the “hERG current change (%, negative = inhibition) at 10uM” value was 5.73%. With `CCCC(=O)c1ccc2c(c1)OCCO2` the “hERG current change (%, negative = inhibition) at 10uM” value was 12.2%. In the case of `Cc1ccc(C2/C(=C(/O)c3ccc(Cl)cc3)C(=O)C(=O)N2CC2CCCO2)o1` (centres unmarked), the “hERG current change (%, negative = inhibition) at 10uM” value was -0.97%. For `COc1ccc(CC(=O)NCc2nnc(SCC(=O)Nc3ncc(C)s3)n2C)cc1`, the “hERG current change (%, negative = inhibition) at 10uM” value was 9.69%. `CC1CCCN(C(=O)Cn2nnc(-c3ccccc3F)n2)C1` (centres unmarked) was tested, and the “hERG current change (%, negative = inhibition) at 10uM” value was 13.8%. For `COc1cc(S(=O)(=O)N2CCOCC2)cc(C(=O)c2nccn2C)c1OC`, the “hERG current change (%, negative = inhibition) at 10uM” value was 14.8%. With `Cc1ccc(C)c(NC(=O)CN(C)C(=O)CSCc2c(C)noc2C)c1` the “hERG current change (%, negative = inhibition) at 10uM” value was -7.38%. `COc1ccc(C(=O)Nc2c(N)nc(SCC(=O)N3CCC(C)CC3)[nH]c2=O)cc1OC` was tested, and the “hERG current change (%, negative = inhibition) at 10uM” value was 6.86%. With `COc1cccc(N2CCN(C(=O)CN(C)S(=O)(=O)c3ccc4c(c3)c(=O)n(C)c(=O)n4C)CC2)c1` the “hERG current change (%, negative = inhibition) at 10uM” value was -10.8%. For `Cc1cccc(N2Cc3ccc(Br)cc3C2)c1`, the “hERG current change (%, negative = inhibition) at 10uM” value was -2.05%. In the case of `COc1ccccc1-c1cc(C(=O)N2CCc3ccccc3C2)c2ccccc2n1`, the “hERG current change (%, negative = inhibition) at 10uM” value was 0.422%. With `NC(=O)C1CCN(C(=O)c2cc3ccccn3n2)CC1` the “hERG current change (%, negative = inhibition) at 10uM” value was 2.6%. In the case of `O=C(NCCCCCCNC(=O)c1ccncc1)c1ccncc1`, the “hERG current change (%, negative = inhibition) at 10uM” value was 6.29%. In the case of `COC(=O)c1cc(-c2ccc(Cl)cc2)n(-c2ccc(S(N)(=O)=O)cc2)n1`, the “hERG current change (%, negative = inhibition) at 10uM” value was -30.6%. `Cc1sc(N/N=C/c2cc([N+](=O)[O-])ccc2O)nc1-c1ccccc1` was tested, and the “hERG current change (%, negative = inhibition) at 10uM” value was 13.9%. `CCC(Oc1ccccc1F)C(=O)NCCN1CCOCC1` (centres unmarked) was tested, and the “hERG current change (%, negative = inhibition) at 10uM” value was 2.26%. In the case of `COc1ccc(-c2ccc(OC)c([C@H]3[C@H]4C=CC[C@@H](C)[C@@H]4C(=O)N3Cc3ccccc3)c2)cc1`, the “hERG current change (%, negative = inhibition) at 10uM” value was 8.91%. In the case of `COc1cc(/C=C/c2nc(-c3ccccc3O)n[nH]2)cc(OC)c1OC`, the “hERG current change (%, negative = inhibition) at 10uM” value was -5.02%. For `O=C(CSc1n[nH]c(-c2ccco2)n1)Nc1ccccc1Cl`, the “hERG current change (%, negative = inhibition) at 10uM” value was 8.27%. `O=c1cnnc(Nc2cccc(C(F)(F)F)c2)[nH]1` was tested, and the “hERG current change (%, negative = inhibition) at 10uM” value was 12%. In the case of `CCOC(=O)c1ccc(CNCc2ccc(Br)cc2)cc1`, the “hERG current change (%, negative = inhibition) at 10uM” value was -39.7%. `O=C(OCc1ccc(Cl)c(Cl)c1)c1cnccn1` was tested, and the “hERG current change (%, negative = inhibition) at 10uM” value was 9.11%. `CCOC(=O)N1CCN(C(=O)C2CCCN(c3nc4ccc(OCC)cc4s3)C2)CC1` (centres unmarked) was tested, and the “hERG current change (%, negative = inhibition) at 10uM” value was -37.3%. For `CC1CCc2c(sc3nc(CN4CCN(S(=O)(=O)c5ccccc5[N+](=O)[O-])CC4)[nH]c(=O)c23)C1` (centres unmarked), the “hERG current change (%, negative = inhibition) at 10uM” value was -8.04%. For `Cc1c(C(=O)O)cnc2c([N+](=O)[O-])cnn12`, the “hERG current change (%, negative = inhibition) at 10uM” value was 28.9%. In the case of `CC(=O)n1nc(-c2ccccc2)nc1NCc1ccc(F)cc1`, the “hERG current change (%, negative = inhibition) at 10uM” value was 17.1%. In the case of `Cc1ccc(-n2c(-c3cn(C)nc3C)n[nH]c2=S)cc1`, the “hERG current change (%, negative = inhibition) at 10uM” value was 19.7%. For `Cc1cc(C(=O)OC(C)C(=O)NC2CCCCC2)c(C)o1` (centres unmarked), the “hERG current change (%, negative = inhibition) at 10uM” value was 4.91%. For `CC(=O)Nc1ccccc1OCC(O)CS(=O)(=O)c1ccc(C(F)(F)F)cn1` (centres unmarked), the “hERG current change (%, negative = inhibition) at 10uM” value was 1.17%. In the case of `O=C(c1ccc(Br)cc1)N1CCN(Cc2ccccc2)CC1`, the “hERG current change (%, negative = inhibition) at 10uM” value was -52.2%. With `CCN(CC)CCNC(=O)c1cn(CC)c2cc(N3CCN(C(=O)c4ccco4)CC3)c(F)cc2c1=O.Cl` the “hERG current change (%, negative = inhibition) at 10uM” value was 0.131%. `CC(O)CNCCOc1ccccc1OCc1ccccc1.O=C(O)C(=O)O` (centres unmarked) was tested, and the “hERG current change (%, negative = inhibition) at 10uM” value was -7.17%. For `O=C(COC(=O)C1CC(=O)N(Cc2ccccc2)C1)Nc1ccccc1F` (centres unmarked), the “hERG current change (%, negative = inhibition) at 10uM” value was 7.39%. `COc1ccc(NC(=O)C2CCCN2c2ccc(OC)c(OC)c2)cc1OC` (centres unmarked) was tested, and the “hERG current change (%, negative = inhibition) at 10uM” value was -2.81%. In the case of `C=CCNCCOCCOc1ccc(Cl)cc1C(C)(C)C.O=C(O)C(=O)O`, the “hERG current change (%, negative = inhibition) at 10uM” value was 11.2%. For `CC1CN(c2ccc([N+](=O)[O-])cc2Cl)CCN1S(C)(=O)=O` (centres unmarked), the “hERG current change (%, negative = inhibition) at 10uM” value was -47.2%. With `CCN1C(=O)c2cccc3c(NS(=O)(=O)c4ccc(NC(C)=O)cc4)ccc1c23` the “hERG current change (%, negative = inhibition) at 10uM” value was -8.89%. For `COc1ccccc1CN1C(=NC(=O)CCC2CCCC2)SC2CS(=O)(=O)CC21` (centres unmarked), the “hERG current change (%, negative = inhibition) at 10uM” value was 17.2%. `CCOC(=O)c1[nH]c2c(c1-c1ccccc1)C(=O)CC(c1ccccc1)C2` (centres unmarked) was tested, and the “hERG current change (%, negative = inhibition) at 10uM” value was -9.17%. `Cc1ccc(N(CC(O)CN2CCCCC2)S(=O)(=O)c2ccccc2[N+](=O)[O-])cc1` (centres unmarked) was tested, and the “hERG current change (%, negative = inhibition) at 10uM” value was -70.9%. `COC(=O)CNC(=O)C(NC(=O)OCc1ccccc1)C(C)C` (centres unmarked) (Cbz-[ξV]-Gly-OMe) was tested, and the “hERG current change (%, negative = inhibition) at 10uM” value was 16.1%. In the case of `Cc1oc(CC(C)C)cc1C(N)=O`, the “hERG current change (%, negative = inhibition) at 10uM” value was 13.3%. In the case of `Cc1cccc2nc(-c3ccco3)c(Nc3ccccc3)n12`, the “hERG current change (%, negative = inhibition) at 10uM” value was 11.4%.
